The other results are listed elsewhere or left out. Repeats are few or missing, and single values can be far off.

Data on 27 molecules can be found in the supplement of paper PMC4604168 (melanoma cell lines).
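Also: cell number obtained by counting DAPI-stained nuclei in high-throughput microscope images with image analysis software, screen run in 1,536-well plates.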

The test system of one test is A2058. In words: cell count relative to DMSO control; melanoma cells; higher = more viable cells. The note with it: library dose: low library concentration; 72 h.
In turn, `Cn1cnc2c(F)c(Nc3ccc(Br)cc3Cl)c(C(=O)NOCCO)cc21` [selumetinib] + CN(c1ncccc1CNc1nc(Nc2ccc3c(c2)CC(=O)N3)ncc1C(F)(F)F)S(C)(=O)=O [PF562271] (first compound 0.015 µM, partner dose 0.08 µM) registered a cell count of 73.1%.

For the molecule `C[C@]1(O)C[C@@H](c2nc(-c3ccc4ccc(-c5ccccc5)nc4c3)c3c(N)nccn32)C1` + CCCCCCCCc1ccc(CCC(N)(CO)CO)cc1 [fingolimod] (first compound 0.4 µM, partner dose 2 µM), the cell count worked out at 79%.

Regarding `Cn1cnc2c(F)c(Nc3ccc(Br)cc3Cl)c(C(=O)NOCCO)cc21` [selumetinib] + CCCCCCCCc1ccc(CCC(N)(CO)CO)cc1 [fingolimod] (first compound 0.015 µM, partner dose 2 µM), the cell count turned out to be 94.6%.

For the molecule `CCN(CC)CCNC(=O)c1c(C)[nH]c(/C=C2\C(=O)Nc3ccc(F)cc32)c1C` [sunitinib] + CN1CCN(c2ccc3nc(-c4c(N)c5c(F)cccc5[nH]c4=O)[nH]c3c2)CC1 [Dovitinib] (first compound 0.4 µM, partner dose 0.1 µM), the cell count came out at 110%.

Molecule `Cn1cnc2c(F)c(Nc3ccc(Br)cc3Cl)c(C(=O)NOCCO)cc21` [selumetinib] + Cn1c(Nc2ccc(C(F)(F)F)cc2)nc2cc(Oc3ccnc(-c4ncc(C(F)(F)F)[nH]4)c3)ccc21 [CHIR265] (first compound 0.015 µM, partner dose 0.08 µM) yielded a cell count of 84.7%.

With `COc1cc([C@@H]2c3cc4c(cc3[C@@H](O[C@@H]3O[C@@H]5CO[C@@H](C)O[C@H]5[C@H](O)[C@H]3O)[C@H]3COC(=O)[C@H]23)OCO4)cc(OC)c1O` [etoposide] + O=C(Nc1cc(C(F)(F)F)cc(C(F)(F)F)c1)c1cc(Cl)ccc1O [IMD0354] (first compound 0.02 µM, partner dose 0.016 µM), the cell count was determined as 88.7%.

Regarding `CCN(CC)CCNC(=O)c1c(C)[nH]c(/C=C2\C(=O)Nc3ccc(F)cc32)c1C` [sunitinib] + CC(=O)O[C@@]12CO[C@@H]1C[C@H](O)[C@@]1(C)C(=O)[C@H](O)C3=C(C)[C@@H](OC(=O)[C@H](O)[C@@H](NC(=O)OC(C)(C)C)c4ccccc4)C[C@@](O)([C@@H](OC(=O)c4ccccc4)[C@H]21)C3(C)C [Docetaxel] (first compound 0.4 µM, partner dose 0.0001 µM), the cell count was determined as 18.6%.

Molecule `C[C@]1(O)C[C@@H](c2nc(-c3ccc4ccc(-c5ccccc5)nc4c3)c3c(N)nccn32)C1` + CN1CCN(c2ccc3nc(-c4c(N)c5c(F)cccc5[nH]c4=O)[nH]c3c2)CC1 [Dovitinib] (first compound 0.4 µM, partner dose 0.1 µM) showed a cell count of 103%.

In the case of `C[C@]1(O)C[C@@H](c2nc(-c3ccc4ccc(-c5ccccc5)nc4c3)c3c(N)nccn32)C1` + CC(C)C[C@H](NC(=O)[C@H](Cc1ccccc1)NC(=O)c1cnccn1)B(O)O [Bortezomib] (first compound 0.4 µM, partner dose 0.001 µM), the cell count turned out to be 90.2%.

A further test deals with A375. The test is described as above. The following applies: library dose: low library concentration; 72 h.
`CCN(CC)CCNC(=O)c1c(C)[nH]c(/C=C2\C(=O)Nc3ccc(F)cc32)c1C` [sunitinib] + Clc1ccc(Nc2nnc(Cc3ccncc3)c3ccccc23)cc1 [vatalanib] (first compound 0.4 µM, partner dose 2 µM) showed a cell count of 94%.

Consider `COc1cc([C@@H]2c3cc4c(cc3[C@@H](O[C@@H]3O[C@@H]5CO[C@@H](C)O[C@H]5[C@H](O)[C@H]3O)[C@H]3COC(=O)[C@H]23)OCO4)cc(OC)c1O` [etoposide] + Cn1c(Nc2ccc(C(F)(F)F)cc2)nc2cc(Oc3ccnc(-c4ncc(C(F)(F)F)[nH]4)c3)ccc21 [CHIR265] (first compound 0.02 µM, partner dose 0.08 µM), for which the cell count stood at 57.1%.

In turn, `CCN(CC)CCNC(=O)c1c(C)[nH]c(/C=C2\C(=O)Nc3ccc(F)cc32)c1C` [sunitinib] + O=C(O)[C@@H]1[O][Sb](=[O])([O][Sb]2(=[O])[O][C@H]([C@H](O)CO)[C@H](O)[C@H](C(=O)O)[O]2)[O][C@H]([C@H](O)CO)[C@@H]1O [stibogluconate] (first compound 0.4 µM, partner dose 2 µM) registered a cell count of 91.5%.

For the molecule `COc1cc([C@@H]2c3cc4c(cc3[C@@H](O[C@@H]3O[C@@H]5CO[C@@H](C)O[C@H]5[C@H](O)[C@H]3O)[C@H]3COC(=O)[C@H]23)OCO4)cc(OC)c1O` [etoposide] + Cc1nc(Nc2ncc(C(=O)Nc3c(C)cccc3Cl)s2)cc(N2CCN(CCO)CC2)n1 [dasatanib] (first compound 0.02 µM, partner dose 0.004 µM), the cell count is 83.6%.

For the molecule `COc1cc([C@@H]2c3cc4c(cc3[C@@H](O[C@@H]3O[C@@H]5CO[C@@H](C)O[C@H]5[C@H](O)[C@H]3O)[C@H]3COC(=O)[C@H]23)OCO4)cc(OC)c1O` [etoposide] + O=c1[nH]nc(Sc2ncc([N+](=O)[O-])s2)n1-c1ccc2c(c1)OCCO2 [BI78D3] (first compound 0.02 µM, partner dose 0.2 µM), the cell count worked out at 75.8%.

The molecule `Cn1cnc2c(F)c(Nc3ccc(Br)cc3Cl)c(C(=O)NOCCO)cc21` [selumetinib] + Nc1nc(F)nc2c1ncn2[C@@H]1O[C@H](CO)[C@@H](O)[C@@H]1O [fludarabine] (first compound 0.015 µM, partner dose 0.2 µM) yielded a cell count of 21.5%.

In turn, `Cn1cnc2c(F)c(Nc3ccc(Br)cc3Cl)c(C(=O)NOCCO)cc21` [selumetinib] + Clc1ccc(Nc2nnc(Cc3ccncc3)c3ccccc23)cc1 [vatalanib] (first compound 0.015 µM, partner dose 2 µM) returned a cell count of 80.9%.

The molecule `CCN(CC)CCNC(=O)c1c(C)[nH]c(/C=C2\C(=O)Nc3ccc(F)cc32)c1C` [sunitinib] + O=C(O)c1ccc2c(c1)nc(Nc1cccc(Cl)c1)c1ccncc12 [CX4945] (first compound 0.4 µM, partner dose 0.4 µM) had a cell count of 79.5%.

Take `C[C@]1(O)C[C@@H](c2nc(-c3ccc4ccc(-c5ccccc5)nc4c3)c3c(N)nccn32)C1` + NC1(c2ccc(-c3nc4ccn5c(=O)[nH]nc5c4cc3-c3ccccc3)cc2)CCC1 [MK2206] (first compound 0.4 µM, partner dose 0.4 µM): the cell count amounted to 81.5%.

Consider `C[C@]1(O)C[C@@H](c2nc(-c3ccc4ccc(-c5ccccc5)nc4c3)c3c(N)nccn32)C1` + CCCS(=O)(=O)Nc1ccc(F)c(C(=O)c2c[nH]c3ncc(Cl)cc23)c1F [PLX4720] (first compound 0.4 µM, partner dose 0.08 µM), for which the cell count turned out to be 56.6%.

With `C[C@]1(O)C[C@@H](c2nc(-c3ccc4ccc(-c5ccccc5)nc4c3)c3c(N)nccn32)C1` + C[C@]1(c2nc3c(C(N)=O)cccc3[nH]2)CCCN1 [Veliparib] (first compound 0.4 µM, partner dose 1.4 µM), the cell count stood at 83%.

`COc1cc([C@@H]2c3cc4c(cc3[C@@H](O[C@@H]3O[C@@H]5CO[C@@H](C)O[C@H]5[C@H](O)[C@H]3O)[C@H]3COC(=O)[C@H]23)OCO4)cc(OC)c1O` [etoposide] + CN(c1ncccc1CNc1nc(Nc2ccc3c(c2)CC(=O)N3)ncc1C(F)(F)F)S(C)(=O)=O [PF562271] (first compound 0.02 µM, partner dose 0.08 µM) registered a cell count of 86.6%.

For the molecule `C[C@]1(O)C[C@@H](c2nc(-c3ccc4ccc(-c5ccccc5)nc4c3)c3c(N)nccn32)C1` + Clc1ccc(Nc2nnc(Cc3ccncc3)c3ccccc23)cc1 [vatalanib] (first compound 0.4 µM, partner dose 2 µM), the cell count came to 59.7%.

Take `COc1cc([C@@H]2c3cc4c(cc3[C@@H](O[C@@H]3O[C@@H]5CO[C@@H](C)O[C@H]5[C@H](O)[C@H]3O)[C@H]3COC(=O)[C@H]23)OCO4)cc(OC)c1O` [etoposide] + O=C(O)[C@@H]1[O][Sb](=[O])([O][Sb]2(=[O])[O][C@H]([C@H](O)CO)[C@H](O)[C@H](C(=O)O)[O]2)[O][C@H]([C@H](O)CO)[C@@H]1O [stibogluconate] (first compound 0.02 µM, partner dose 2 µM): the cell count came out at 75.7%.

For the molecule `CCN(CC)CCNC(=O)c1c(C)[nH]c(/C=C2\C(=O)Nc3ccc(F)cc32)c1C` [sunitinib] + Cn1c(Nc2ccc(C(F)(F)F)cc2)nc2cc(Oc3ccnc(-c4ncc(C(F)(F)F)[nH]4)c3)ccc21 [CHIR265] (first compound 0.4 µM, partner dose 0.08 µM), the cell count was 59.4%.

`CCN(CC)CCNC(=O)c1c(C)[nH]c(/C=C2\C(=O)Nc3ccc(F)cc32)c1C` [sunitinib] + CNC(=O)c1cc(Oc2ccc(NC(=O)Nc3ccc(Cl)c(C(F)(F)F)c3)cc2)ccn1 [sorafenib] (first compound 0.4 µM, partner dose 0.4 µM) gave a cell count of 81.8%.

The molecule `C[C@]1(O)C[C@@H](c2nc(-c3ccc4ccc(-c5ccccc5)nc4c3)c3c(N)nccn32)C1` + C=C(c1ccc(C(=O)O)cc1)c1cc2c(cc1C)C(C)(C)CCC2(C)C [Bexarotene] (first compound 0.4 µM, partner dose 2 µM) returned a cell count of 56.2%.

`CCN(CC)CCNC(=O)c1c(C)[nH]c(/C=C2\C(=O)Nc3ccc(F)cc32)c1C` [sunitinib] + CN(c1ncccc1CNc1nc(Nc2ccc3c(c2)CC(=O)N3)ncc1C(F)(F)F)S(C)(=O)=O [PF562271] (first compound 0.4 µM, partner dose 0.08 µM) came in with a cell count of 83.4%.
